Reference: PubChem BioAssay AID504466 (National Center for Advancing Translational Sciences (NCATS), 2011)
Hit rate of the full screen: of about 330,000 compounds, about 4,200 (1.3%) were called active. The inconclusive results got no clear call from the source; some entries with a clear call stand among them for comparison. Calls follow the shape of the dose curve; as a rule, active = well fitted activation curve with a large enough effect; inconclusive = small, poorly fitted or top-dose-only effect; inactive = no such curve, though single readings can be large or run the other way. Where the call is inconclusive, the potency comes from a doubtful curve fit.

assay: qHTS screen for small molecules that induce genotoxicity in human embryonic kidney (HEK293T) cells expressing luciferase-tagged ELG1; conditions: HEK293T ELG1-luciferase reporter, luminescence, 16 h; series mostly up to 46 µM; activity change, positive = activation: at the top concentration; also: nearly all actives have a fitted effect of over 60% in size; as to activity change, positive = activation: % of control where 0% means no effect
In short: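 Reporter readout depends on ELG1 protein level, which increases with genetic stress. After 16 hr compound exposure at 37 °C, luciferase activity was quantified using ONE-Glo.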
Potency is read from the fitted curve at half-maximal effect; tags tell the direction and shape of the fitted curve.

Row | SMILES | Potency | activity change, positive = activation
1 | O=C(Nc1ncccc1O)c1ccc(Oc2ccccc2)cc1 | active: 9.2 µM | 
2 | CC(C)(C)c1ccc(C(=O)CSc2ncn[nH]2)cc1 | inconclusive: 16.4 µM [activator, partial curve] | 
3 | COc1ccc2nc3oc(C(=O)N4CCC(C(N)=O)CC4)cc3cc2c1 |  | inactive: 9.67%
4 | CC(C#N)(NC(=O)CN1CCN(S(=O)(=O)c2ccccc2Cl)CC1)C1CC1 (stereo unspecified) |  | inactive: 1.52%
5 | Cc1nc(-c2ccccc2)nc(-c2ccccc2)n1 |  | inactive: 2.42%
6 | COc1ccc(CNC(=O)NC2CCCCC2)cc1 | inconclusive: 20.6 µM [activator, partial curve, poor fit] | 
7 | Cc1cnc(C(=O)Nc2nnc(C3CC3)s2)cn1 | inconclusive: 18.4 µM [activator, partial curve, poor fit] | 
8 | COc1ccc(N2C(=O)c3ccccc3C2O)cc1 (stereo unspecified) | inconclusive: 16.4 µM [activator, partial curve, poor fit] | 
9 | Cc1nc2ccc(C(=O)c3ccccc3)cc2[nH]1 | inconclusive: 10 µM [activator, partial curve] | 
10 | Cc1c(C(=O)Nc2cc(F)cc(F)c2)cnn1-c1ccccc1 | inconclusive: 5.17 µM [activator, partial curve] | 
11 | O=C(/C=C/c1ccc(Cl)cc1)NC(=S)Nc1ccc(CN2CCOCC2)cc1 | inconclusive: 20.6 µM [activator, partial curve, poor fit] | 
12 | COc1ccc2nc(/N=C\N(C)C)sc2c1 |  | inactive: 16.2%
13 | Cc1ccnc2nc(NC(=O)c3ccco3)nn12 | inconclusive: 20.6 µM [activator, partial curve, poor fit] | 
14 | O=C(NCCC1=CCCCC1)NC1CCCCC1 | inconclusive: 2.59 µM [activator, full curve] | 
15 | COc1cc(/C=C2/SC(=NCc3ccccc3)N(Cc3ccccc3)C2=O)ccc1O |  | inactive: 5.28%
16 | O=C(O)c1ccccc1C(=O)NCCCCCCNC(=O)c1ccccc1C(=O)O |  | inactive: -2.71%
17 | CSCC[C@H](NC(=O)[C@H](Cc1ccccc1)n1c(=O)[nH]c2ccccc2c1=O)C(=O)NCC1CCC(C(=O)O)CC1 (stereo partly specified) |  | inactive: 1.6%
18 | O=C(NCCCN1CCC(Cc2ccccc2)CC1)C1CC(=O)N(C2CCCCCC2)C1 (stereo unspecified) |  | inactive: 1.96%
19 | O=C(Nc1nc2c(s1)CCCC2)c1cc2n(n1)C(C(F)(F)F)CC(C1CC1)N2 (stereo unspecified) | inconclusive: 11.6 µM [activator, single point] | 
20 | Cc1ccc(C(=O)COc2ccccc2N2C(=O)c3ccccc3C2=O)cc1 | inconclusive: 16.4 µM [activator, single point] | 
21 | O=C(N/N=C/c1ccc[nH]1)c1ccccc1O | inconclusive: 4.61 µM [activator, partial curve] | 
22 | Cc1ccc(C(=O)c2ncc[nH]2)cc1 | inconclusive: 20.6 µM [activator, partial curve, poor fit] | 
23 | CCCCOc1ccc(/C=N/NC(=O)c2nnn(-c3nonc3N)c2C)cc1 |  | inactive: -1.48%

Row | SMILES | Potency | activity change, positive = activation
24 | COc1ccccc1NS(=O)(=O)c1ccc(C(=O)Nc2ncccc2O)cc1 | inconclusive: 14.6 µM [activator, partial curve, poor fit] | 
25 | CCc1ccc(-c2csc(NC(=O)COC(=O)CCc3nc4ccccc4s3)n2)cc1 | inconclusive: 6.51 µM [activator, partial curve] | 
26 | O=C(Cn1cnc2ccccc2c1=O)Nc1ccc2c(c1)OCCO2 | inconclusive: 8.2 µM [activator, partial curve] | 
27 | COc1ccc(/C=C2/SC(=O)NC2=O)cc1 | inconclusive: 20.6 µM [activator, partial curve] | 
28 | COc1ccc(-c2nc3cc(NC(=S)NC(=O)Cc4ccccc4)ccc3o2)cc1 | inconclusive: 23.1 µM [activator, partial curve] | 
29 | CCN(CC)C(=O)Cn1cc(SCC(=O)NC2CCCC2)c2ccccc21 | inconclusive: 0.116 µM [activator, partial curve, poor fit] | 
30 | Cc1cccc(NC(=S)NC(=O)c2oc3ccccc3c2C)n1 | inconclusive: 4.11 µM [activator, partial curve] | 
31 | Cc1occc1C(=O)O/N=C(\N)c1ccccc1 | inconclusive: 2.91 µM [activator, full curve] | 
32 | COCCNc1nnc(SC(C)C(=O)Nc2ccc(-c3nc4ccc(C)cc4s3)cc2)s1 (stereo unspecified) | inconclusive: 1.64 µM [activator, partial curve] | 
33 | c1ccc(CNc2ccc3ccccc3n2)nc1 | inconclusive: 2.91 µM [activator, full curve] | 
34 | CC1Sc2ccc(C(=O)OCc3ccccc3Cl)cc2NC1=O (stereo unspecified) | inconclusive: 2.59 µM [activator, full curve] | 
35 | CCc1ccc(C(=O)CN2C(=O)NC(C)(CCc3ccccc3)C2=O)cc1 (stereo unspecified) |  | inactive: -2.26%
36 | O=C(NCC(c1ccco1)N1CCOCC1)c1ccccc1 (stereo unspecified) |  | inactive: 0.214%
37 | Cc1ccc(C(=O)CSc2nnc(C)s2)cc1 | inconclusive: 13 µM [activator, partial curve] | 
38 | CCCCC(CC)C(=O)Oc1ccc(O)c(C(C)(C)C)c1 (stereo unspecified) |  | inactive: -0.986%
39 | COc1ccc(S(=O)(=O)Nc2ncccc2C)c2ccccc12 |  | inactive: 0.048%
40 | COC(=O)c1ccc(/C=N/NC(=O)c2cccc(F)c2)cc1 | inconclusive: 14.6 µM [activator, partial curve] | 
41 | c1ccc(CCNc2ncnc3c2cnn3-c2ccccc2)cc1 | inconclusive: 6.51 µM [activator, partial curve] | 
42 | CC(=O)Nc1ccc(-c2sc(Nc3cccc4ccccc34)n[n+]2-c2ccccc2)cc1 |  | inactive: -0.299%
43 | COC(=O)c1ccc2nc(NC(=O)COC(=O)CSc3nc(C)cc(C)n3)sc2c1 | inconclusive: 23.1 µM [activator, partial curve, poor fit] | 
44 | O=C(Nc1ccccc1OC(F)F)c1cccc(S(=O)(=O)N2CCCC2)c1 |  | inactive: -0.959%
45 | COc1ccccc1NCC(=O)N/N=C/c1c(O)ccc2ccccc12 | inconclusive: 29.1 µM [activator, partial curve, poor fit] | 
46 | O=C(NNC(=O)c1cc2ccccc2oc1=O)c1ccccc1 | inconclusive: 5.8 µM [activator, single point] | 
